In the supplement of paper PMC8728848:
Some of the results follow.

Columns and labels:
Test in all cases: glycan array binding signal (z-score within array); higher = stronger binding
Settings in all cases: glycan notation: IUPAC condensed, linker removed
[1] = biological target: Neu5Ac(a2-3)Gal(b1-4)GlcNAc
Outline: (§1)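 The binding signal is a Z-score computed within each array and averaged over linkers. Arrays of the same protein sequence at different concentrations or buffers were also averaged together. Data originate from 3228 arrays in the Consortium for Functional Glycomics database, kept only where the protein sequence was available.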

[2] = biological target: Neu5Ac(a2-3)Gal(b1-4)GlcNAc(b1-2)Man
Outline: as §1

[3] = biological target: Neu5Ac(a2-3)Gal(b1-4)GlcNAc(b1-2)Man(a1-3)[GlcNAc(b1-4)][Neu5Ac(a2-3)Gal(b1-4)GlcNAc(b1-2)Man(a1-6)]Man(b1-4)GlcNAc(b1-4)GlcNAc
Outline: as §1

[4] = biological target: Neu5Ac(a2-3)Gal(b1-4)GlcNAc(b1-2)Man(a1-3)[Neu5Ac(a2-3)Gal(b1-4)GlcNAc(b1-2)Man(a1-6)]Man(b1-4)GlcNAc(b1-4)GlcNAc
Outline: as §1

[5] = biological target: Neu5Ac(a2-3)Gal(b1-4)GlcNAc(b1-2)Man(a1-3)[Neu5Ac(a2-3)Gal(b1-4)GlcNAc(b1-2)Man(a1-6)]Man(b1-4)GlcNAc(b1-4)[Fuc(a1-6)]GlcNAc
Outline: as §1

[6] = biological target: Neu5Ac(a2-3)Gal(b1-4)GlcNAc(b1-2)Man(a1-3)[Neu5Ac(a2-6)Gal(b1-4)GlcNAc(b1-2)Man(a1-6)]Man(b1-4)GlcNAc(b1-4)GlcNAc
Outline: as §1

[7] = biological target: Neu5Ac(a2-3)Gal(b1-4)GlcNAc(b1-2)[Neu5Ac(a2-3)Gal(b1-4)GlcNAc(b1-4)]Man(a1-3)[GlcNAc(b1-4)][Neu5Ac(a2-3)Gal(b1-4)GlcNAc(b1-2)[Neu5Ac(a2-3)Gal(b1-4)GlcNAc(b1-6)]Man(a1-6)]Man(b1-4)GlcNAc(b1-4)GlcNAc
Outline: as §1

[8] = biological target: Neu5Ac(a2-3)Gal(b1-4)GlcNAc(b1-2)[Neu5Ac(a2-3)Gal(b1-4)GlcNAc(b1-4)]Man(a1-3)[GlcNAc(b1-4)][Neu5Ac(a2-3)Gal(b1-4)GlcNAc(b1-4)Man(a1-6)]Man(b1-4)GlcNAc(b1-4)GlcNAc
Outline: as §1

[9] = biological target: Neu5Ac(a2-3)Gal(b1-4)GlcNAc(b1-2)[Neu5Ac(a2-3)Gal(b1-4)GlcNAc(b1-6)]Man(a1-6)[Neu5Ac(a2-3)Gal(b1-4)GlcNAc(b1-2)Man(a1-3)]Man(b1-4)GlcNAc(b1-4)GlcNAc
Outline: as §1

[10] = biological target: Neu5Ac(a2-3)Gal(b1-4)GlcNAc(b1-2)[Neu5Ac(a2-3)Gal(b1-4)GlcNAc(b1-6)]Man(a1-6)[Neu5Ac(a2-3)Gal(b1-4)GlcNAc(b1-2)Man(a1-3)][GlcNAc(b1-4)]Man(b1-4)GlcNAc(b1-4)GlcNAc
Outline: as §1

[11] = biological target: Neu5Ac(a2-3)Gal(b1-4)GlcNAc(b1-3)Gal
Outline: as §1

[12] = biological target: Neu5Ac(a2-3)Gal(b1-4)GlcNAc(b1-3)Gal(b1-3)GlcNAc
Outline: as §1

[13] = biological target: Neu5Ac(a2-3)Gal(b1-4)GlcNAc(b1-3)Gal(b1-4)GlcNAc
Outline: as §1

[14] = biological target: Neu5Ac(a2-3)Gal(b1-4)GlcNAc(b1-3)Gal(b1-4)GlcNAc(b1-2)Man(a1-3)[Neu5Ac(a2-3)Gal(b1-4)GlcNAc(b1-3)Gal(b1-4)GlcNAc(b1-2)Man(a1-6)]Man(b1-4)GlcNAc(b1-4)GlcNAc
Outline: as §1

[15] = biological target: Neu5Ac(a2-3)Gal(b1-4)GlcNAc(b1-3)Gal(b1-4)GlcNAc(b1-3)Gal(b1-4)GlcNAc
Outline: as §1

[16] = biological target: Neu5Ac(a2-3)Gal(b1-4)GlcNAc(b1-3)Gal(b1-4)GlcNAc(b1-3)Gal(b1-4)GlcNAc(b1-2)Man(a1-3)[Neu5Ac(a2-3)Gal(b1-4)GlcNAc(b1-3)Gal(b1-4)GlcNAc(b1-3)Gal(b1-4)GlcNAc(b1-2)Man(a1-6)]GalNAc
Outline: as §1

[17] = biological target: Neu5Ac(a2-3)Gal(b1-4)GlcNAc(b1-3)Gal(b1-4)GlcNAc(b1-3)GalNAc
Outline: as §1

[18] = biological target: Neu5Ac(a2-3)Gal(b1-4)GlcNAc(b1-3)Gal(b1-4)GlcNAc(b1-3)[Neu5Ac(a2-3)Gal(b1-4)GlcNAc(b1-3)Gal(b1-4)GlcNAc(b1-6)]GalNAc
Outline: as §1

[19] = biological target: Neu5Ac(a2-3)Gal(b1-4)GlcNAc(b1-3)Gal(b1-4)GlcNAc(b1-6)[Gal(b1-3)]GalNAc
Outline: as §1

[20] = biological target: Neu5Ac(a2-3)Gal(b1-4)GlcNAc(b1-3)Gal(b1-4)[Fuc(a1-3)]GlcNAc
Outline: as §1

[21] = biological target: Neu5Ac(a2-3)Gal(b1-4)GlcNAc(b1-3)GalNAc
Outline: as §1

[22] = biological target: Neu5Ac(a2-3)Gal(b1-4)GlcNAc(b1-3)[Neu5Ac(a2-3)Gal(b1-4)GlcNAc(b1-6)]GalNAc
Outline: as §1

[23] = biological target: Neu5Ac(a2-3)Gal(b1-4)GlcNAc(b1-6)GalNAc
Outline: as §1

[24] = biological target: Neu5Ac(a2-3)Gal(b1-4)GlcNAc(b1-6)[Gal(b1-3)]GalNAc
Outline: as §1

[25] = biological target: Neu5Ac(a2-3)Gal(b1-4)GlcNAc(b1-6)[Neu5Ac(a2-3)Gal(b1-3)]GalNAc
Outline: as §1

[26] = biological target: Neu5Ac(a2-3)Gal(b1-4)GlcNAc6S
Outline: as §1

[27] = biological target: Neu5Ac(a2-3)Gal(b1-4)[Fuc(a1-3)]GlcNAc
Outline: as §1

[28] = biological target: Neu5Ac(a2-3)Gal(b1-4)[Fuc(a1-3)]GlcNAc(b1-2)Man
Outline: as §1

[29] = biological target: Neu5Ac(a2-3)Gal(b1-4)[Fuc(a1-3)]GlcNAc(b1-3)Gal
Outline: as §1

[30] = biological target: Neu5Ac(a2-3)Gal(b1-4)[Fuc(a1-3)]GlcNAc(b1-3)Gal(b1-4)GlcNAc
Outline: as §1

[31] = biological target: Neu5Ac(a2-3)Gal(b1-4)[Fuc(a1-3)]GlcNAc(b1-3)Gal(b1-4)[Fuc(a1-3)]GlcNAc(b1-3)Gal(b1-4)[Fuc(a1-3)]GlcNAc
Outline: as §1

[32] = biological target: Neu5Ac(a2-3)Gal(b1-4)[Fuc(a1-3)]GlcNAc(b1-3)GalNAc
Outline: as §1

[33] = biological target: Neu5Ac(a2-3)Gal(b1-4)[Fuc(a1-3)]GlcNAc(b1-6)[Gal(b1-3)]GalNAc
Outline: as §1

[34] = biological target: Neu5Ac(a2-3)Gal(b1-4)[Fuc(a1-3)]GlcNAc(b1-6)[Neu5Ac(a2-3)Gal(b1-3)]GalNAc
Outline: as §1

[35] = biological target: Neu5Ac(a2-3)Gal(b1-4)[Fuc(a1-3)]GlcNAc6S
Outline: as §1

[36] = biological target: Neu5Ac(a2-3)Gal6S(b1-4)GlcNAc
Outline: as §1

[37] = biological target: Neu5Ac(a2-3)Gal6S(b1-4)[Fuc(a1-3)]GlcNAc
Outline: as §1

[38] = biological target: Neu5Ac(a2-3)GalNAc
Outline: as §1

B1: CaSRK1 (Capsicum annuum) (protein)
chain: MALCKIFPFAFILLSCSCYLISGQRFDYPTANLSTTWINSVSAPHSIDYTDGSRIRAILLRGTFGPRYACGFYCNGNCESYLFAIFIVQTNSASQITSPAIGFPQVVWSANRNNPVKINSTLQLTAEGDLVLRDADGTLAWSTNTAGKSVAGLSLTDEGNLALFDSKNATVWQSFDHPTDALVPGQKLVPGMKLTASVSRTNWTAGGLFALSAIDNGLVAFVESNPPQKYFEASVGGSNTSGGSNYVKYLNGSLTLFTHSADTTELILISITPASSAQYMKLESNGHLKVYEWTSRGWREVDDLLTGFRGECNYPTVCGRYGICTMGQCSCPTSSSSRTYFRPIDVRRPSLGCSEVTKLTCQNTKKHSPLEVEDVDYFAFKAGISDTDLNTCKRACLEKCSCKAAFFRSGLNSSRTRGDCYLPTEIFSIMNNEKDRTRYDSVAFIKVQV
With B1 the “glycan array binding signal (z-score)” value [1] was -0.189, the “glycan array binding signal (z-score)” value [2] was 7.73 and the “glycan array binding signal (z-score)” value [3] was -0.597. The “glycan array binding signal (z-score)” value [4] was -0.578, the “glycan array binding signal (z-score)” value [5] was -0.48 and the “glycan array binding signal (z-score)” value [6] was -0.598. The “glycan array binding signal (z-score)” value [7] was -0.421, the “glycan array binding signal (z-score)” value [8] was 0.06 and the “glycan array binding signal (z-score)” value [9] was 0.059. The “glycan array binding signal (z-score)” value [10] was -0.593, the “glycan array binding signal (z-score)” value [11] was -0.591 and the “glycan array binding signal (z-score)” value [12] was -0.518. The “glycan array binding signal (z-score)” value [13] was 0.418, the “glycan array binding signal (z-score)” value [14] was 1.33 and the “glycan array binding signal (z-score)” value [15] was -0.207. The “glycan array binding signal (z-score)” value [16] was 0.865, the “glycan array binding signal (z-score)” value [17] was -0.141 and the “glycan array binding signal (z-score)” value [18] was -0.412. For the same binder, the “glycan array binding signal (z-score)” value [19] was -0.485, the “glycan array binding signal (z-score)” value [20] was -0.453 and the “glycan array binding signal (z-score)” value [21] was -0.357. For the same binder, the “glycan array binding signal (z-score)” value [22] was -0.34, the “glycan array binding signal (z-score)” value [23] was 0.207 and the “glycan array binding signal (z-score)” value [24] was 2.25. The “glycan array binding signal (z-score)” value [25] was -0.424, the “glycan array binding signal (z-score)” value [26] was -0.363 and the “glycan array binding signal (z-score)” value [27] was -0.511. The “glycan array binding signal (z-score)” value [28] was -0.371, the “glycan array binding signal (z-score)” value [29] was -0.598 and the “glycan array binding signal (z-score)” value [30] was -0.22. For the same binder, the “glycan array binding signal (z-score)” value [31] was 0.059, the “glycan array binding signal (z-score)” value [32] was 0.27 and the “glycan array binding signal (z-score)” value [33] was -0.531. For the same binder, the “glycan array binding signal (z-score)” value [34] was -0.288, the “glycan array binding signal (z-score)” value [35] was -0.426 and the “glycan array binding signal (z-score)” value [36] was -0.497. The “glycan array binding signal (z-score)” value [37] was -0.236 and the “glycan array binding signal (z-score)” value [38] was 0.135.
